# Assay results reported in PMC12136788.
# The other results are listed elsewhere or left out.
# T1: UNK ZnF1-3 (human, UniProt Q9C0B0 31-174)
# T1 sequence: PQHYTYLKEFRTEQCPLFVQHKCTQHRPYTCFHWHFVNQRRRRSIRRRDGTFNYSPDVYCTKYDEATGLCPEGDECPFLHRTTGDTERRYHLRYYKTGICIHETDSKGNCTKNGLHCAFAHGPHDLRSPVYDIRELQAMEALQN
# B1: 13400300_13412261_3633_CDS_ENSMUSG00000020576_ENSMUST00000042953|mouse|control|control (ssRNA)
# RNA: GGGAGUUCUACAGUCCGACGAUCUUCAAGAUACCCCAGGGCUUGAAUGAGGUCUAAUUCCUCCUGAAUGGCAGCCGGCCUGUCCGUUAUAAGCUGUAAGCAGCACCUGGCCAAAUCCAUGCAGCUGUCAGUGAGGUUGGUGGACAACAGAGGAUUGAGCAUCA
# B2: chr15:96529919:96529920:-_ENSMUSG00000022462_ENSMUST00000023099|mus_mus|FALSE|FALSE (ssRNA)
# RNA: GGGAGUUCUACAGUCCGACGAUCCCACCUCACGGCAGCGUCUCCCGUGGGCUGUCUCGGUCACACACCAGAAUUGUAAAACGAGGGAAAAAAUGUAACAGUGACGGAGUCCUUUUCUUUUAUUUUUUUUAAUAAAAAAUUUUUCAACAGAGGAUUGAGCAUCA
# B3: 115634494_115634614_4909_3pUTR_ENSG00000148158_ENST00000374232|human|control|control (ssRNA)
# RNA: GGGAGUUCUACAGUCCGACGAUCACUCUGGAUGUUCCUCGGGCUGCCAUCCCAAAAUUCCACUUGCAGACUGCCACAUGGUCAUCGUGCCCUCCUCUAAAGCAGAACUUCCUGUUAUUUGAUCACAAAAGGCAGCCUCACAAGCAACAGAGGAUUGAGCAUCA
# B4: chr2:232320318:232320319:-_ENSG00000115053_ENST00000322723|hu_hu|hu_hu_hu_mus_True|48_58 (ssRNA)
# RNA: GGGAGUUCUACAGUCCGACGAUCACUAUUAAAGUCUACAAAACCAAACCCUUUGGAAGAACCAGUUUCCCGAUCAGUAACUAUCCUUGCCCGAACGGAGCCCUCAAAUGAUUCUUUUAAGGUCUCUUCAGUGGUAUCCUCAGACAACAGAGGAUUGAGCAUCA
# B5: chr14:102359341:102359342:+_ENSG00000078304_ENST00000445439|hu_mus|motif|central (ssRNA)
# RNA: GGGAGUUCUACAGUCCGACGAUCCUUCAGUGGUAAGGCAAAUCCAUUAAUUAUACUUCCCAGGAUCUCCAGUAACUCCGCGGUGCCAUUGUGAUGCUCUGUCUCAUAGAUAAACCUAUAAAAUAUAUUAUUGAUCUGUUUCCUCAACAGAGGAUUGAGCAUCA
# B6: chr6:57703266:57703267:-_ENSMUSG00000037788_ENSMUST00000114297|mus_mus|FALSE|FALSE (ssRNA)
# RNA: GGGAGUUCUACAGUCCGACGAUCCUGAUUUUCUCAUUUACAAUGUCAGCCCCCUUCCUUGCAGCCCCACUCCCCACCAUACUACAUAUAAAUAAUCUAGACAUCUUAGCUAUACUUCCUUGCUCUUAGUACACAAGGUCUCAACAACAGAGGAUUGAGCAUCA
# B7: 21926265_21926385_571_CDS_ENSG00000121361_ENST00000240662|human|control|control (ssRNA)
# RNA: GGGAGUUCUACAGUCCGACGAUCGGCCACCAGCCACCACAUGAUAGCGAAGAGCAGCCAGCUGCAGAGGAAGGACAUGGUAAAGAUGACCAGCGUGUGGCGCCAUUUCAGGUCCACCAAGGUGGUGAAGAUGUCCUGUAGAAACAACAGAGGAUUGAGCAUCA
# B8: chr7:135612270:135612271:-_ENSG00000105887_ENST00000393085|hu_mus|hu_hu_hu_mus_False|8_78 (ssRNA)
# RNA: GGGAGUUCUACAGUCCGACGAUCGUUUUUUUCUGAGAUGUUAAAUAGUACUUCAGUAACAAAACUUACUUAACCUUUUAUUAAUGCGUGUUGUACCAAAAGCAGACAUUUUAGCUUCAUUUAUUCACUCAAAAUAUCAUUAAGCAACAGAGGAUUGAGCAUCA
# B9: chr11:9430111:9430112:+_ENSG00000205339_ENST00000379719|hu_mus|FALSE|FALSE (ssRNA)
# RNA: GGGAGUUCUACAGUCCGACGAUCGUGGAUAAUGGCUUCUACAAUAUUUUCUCGAAUACAAUGCCGGUCUUCUUCUGGAAUAGUAUAUGGAGCGAUGUCCCCUGGUGUGGCUUCCCGAUCAGGCCAAUAUUGUGUUAUCAUAUUCAACAGAGGAUUGAGCAUCA
# B10: chr18:56819859:56819860:+_ENSG00000166562_ENST00000588875|hu_mus|hu_hu_hu_mus_True|18_88 (ssRNA)
# RNA: GGGAGUUCUACAGUCCGACGAUCAACCUUGAUUACUCUGUGAACUAUUGGAAUGUCUCUUCCUUCAACCUUAAAAACAACUAUUUCACCAGCUCUGAUGGGGUCCUCCCGGAAAUUUGUGAGGAACAGCAGAUCUCCUCUGUGCAACAGAGGAUUGAGCAUCA
# B11: chr14:88400820:88400821:-_ENSG00000054983_ENST00000261304|hu_hu|motif|central (ssRNA)
# RNA: GGGAGUUCUACAGUCCGACGAUCGAGCUACCUCAGUGUUAGCAGCAAGGCUUCGAGGUCUGUACUACUCAAACCACUCCGGAGGGUAUGGCCAAUGCACAGUUUGAAUGUUAGGGAACACACCAGGUAAUGUUAAAGAUUCACCAACAGAGGAUUGAGCAUCA
# B12: 166768614_166769904_2691_CDS_ENSMUSG00000002718_ENSMUST00000002790|mouse|control|control (ssRNA)
# RNA: GGGAGUUCUACAGUCCGACGAUCGCCAAUGAGAGAUUGUAACAAAGGAGUCCACAGCUUAGUGUACUCCGUGUCCAUCAUUGGUGGACACUCUGUGAGUAAUUUGGUUAUGCCAACUGCACAGAUUUUUUUCUCCACGUUCCCCAACAGAGGAUUGAGCAUCA
# B13: chr2:179515052:179515053:+_ENSMUSG00000000305_ENSMUST00000000314|mus_hu|mus_mus_mus_hu_False|28_68 (ssRNA)
# RNA: GGGAGUUCUACAGUCCGACGAUCGCUGUCCCAUGCAGUCACCGUGAACGCCACCUGCUCGGAGGGGAUCUUCAACUCCCGGGUGGCGAAGACUGUCCCAUCUGCCCCGACUUUGAAGUCCAUGCUGUUGGUCUCAUAUUGUGUCAACAGAGGAUUGAGCAUCA
# B14: chr1:33855670:33855671:-_ENSMUSG00000042197_ENSMUST00000044455|mus_mus|motif|central (ssRNA)
# RNA: GGGAGUUCUACAGUCCGACGAUCAUUAAGAAGGAGUACAUUUAAAUAGUGCAAUUGUACAGGUGAUAAAGGUAACAAACGGAGAGUAAAUCACUGUACAAACGUUACAUAAAUACCACAUCAAAGGCUAGGUCUUAAACGUAACAACAGAGGAUUGAGCAUCA
# Biological target: T1, UNK ZnF1-3
# Assay: nsRBNS (natural sequence RNA bind-n-seq); RBNS binding buffer (assumed for nsRBNS): 25 mM Tris pH 7.5, 150 mM KCl, 3 mM MgCl2, 0.01% Triton X-100, 500 ug/ml BSA, 20 U/ml SUPERase-In, 4 C; UNK is unkempt and MSI1 is Musashi-1; names of the RNAs are library labels; protein concentration not given here; high values mean tight binding
row,Binder,binding signal [enrichment R]
1,B1,0.996
2,B2,1.44
3,B3,0.644
4,B4,0.599
5,B5,1.47
6,B6,1.27
7,B7,1.12
8,B8,0.53
9,B9,0.912
10,B10,0.848
11,B11,1.23
12,B12,0.941
13,B13,0.611
14,B14,0.827
